In PubChem BioAssay AID602179 (National Center for Advancing Translational Sciences (NCATS), 2012):
About 360 (0.092%) of roughly 390,000 compounds were called active. Inconclusive means that the source gave no clear call. Such entries were picked first, then a sample of the others. Calls come from the whole dose curve; as a rule, active = well fitted inhibition curve with a large enough effect; inconclusive = small, poorly fitted or top-dose-only effect; inactive = no such curve, though single readings can be large or run the other way. Where the call is inconclusive, the potency comes from a doubtful curve fit.

Target: Isocitrate dehydrogenase [NADP] cytoplasmic (Homo sapiens) (UniProt O75874)
Test: qHTS for Inhibitors of mutant isocitrate dehydrogenase 1 (IDH1): qHTS; note: nearly all actives have a fitted effect of over 65% in size
Details: IDH1-R132H enzyme, NADPH consumption, diaphorase/resazurin fluorescence; series mostly up to 76.6 µM; activity change, negative = inhibition: at the top concentration
Procedure, shortened: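 IDH1-R132H (0.5 ug/mL) preincubated 30 min with compound, then NADPH (0.016 mM) and alpha-KG (2 mM) added; 80 min at RT, pH 7.5. Remaining NADPH coupled via diaphorase/resazurin to fluorescence (540/590 nm); concentration-response curves normalized to no-enzyme control.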
% is set by controls: 0 for no effect and ±100 for the full control effect; potency is the fitted concentration of half-maximal effect; tags give direction and shape of the fitted curve.

SMILES | Potency | activity change, negative = inhibition
O=C1CC(c2nnc(Cc3ccc(Cl)cc3)o2)CN1c1ccccc1 (stereo not given) | inconclusive: 70.8 µM [inhibitor, single point] | –
O=C(CN1C(=O)/C(=C2/SC(=S)N(CCS(=O)(=O)O)C2=O)c2ccccc21)Nc1cccc(C(F)(F)F)c1 | inconclusive: 46.5 µM [inhibitor, partial curve] | –
O=C(O)COc1ccccc1C(Nc1cccnc1)c1cc(Cl)c2cccnc2c1O (stereo not given) | inconclusive: 29.3 µM [inhibitor, partial curve] | –
COc1ccc(Nc2nc(N)c([N+](=O)[O-])c(NCCO)n2)cc1 | inconclusive: 58.5 µM [inhibitor, single point] | –
Cc1noc(C)c1S(=O)(=O)N(CC(=O)Nc1ccc(C(F)(F)F)cc1)c1ccc(C(C)C)cc1 | – | inactive: -20.1%
O=C(CCc1nc2ccccc2c(=O)[nH]1)Nc1ccc(F)cc1 | – | inactive: 6.31%
CCOC(=O)c1c(-c2ccc(C)o2)csc1NC(=O)CN(C)CC(=O)Nc1ccc(C)cc1 | inconclusive: 13.1 µM [inhibitor, full curve] | –
CCOC(=O)c1ccc(N2C(=O)c3n[nH]c(C)c3C2c2ccc(CC)cc2)cc1 (stereo not given) | inconclusive: 50.1 µM [inhibitor, single point] | –
COc1ccc(-c2noc(CCC(=O)NCCCN3CCC(Cc4ccccc4)CC3)n2)cc1 | – | inactive: 3.73%
Cc1ccc(S(=O)(=O)C(CNC(=O)c2ccc(C(F)(F)F)cc2)c2ccco2)cc1 (stereo not given) | – | inactive: 1.23%
CCOc1cc(/C=C2\C(=O)ON=C2C)ccc1OCc1ccccc1 | inconclusive: 58.5 µM [inhibitor, single point] | –
CC(C)(C)CC(C)(C)N=C1Nc2cc(Cl)c(Cl)cc2NC12C[C@H]1CCC(=O)N3CC[C@@H](C2)[C@@H]13 (stereo not given in full) | inconclusive: 28.2 µM [inhibitor, partial curve, poor fit] | –
CC(C)Sc1nc2sc3c(c2c(=O)n1-c1ccccc1)CCCC3 | inconclusive: 44.7 µM [inhibitor, partial curve] | –
CCCNc1ncnc2c1c(-c1ccccc1)cn2-c1ccccc1 | inconclusive: 50.1 µM [inhibitor, single point] | –
CCc1ccc2ncc(S(=O)(=O)c3ccc(C)c(C)c3)c(N3CCCC3)c2c1 | – | inactive: 1.27%
CC(=O)c1cccc(N(C(=O)c2ccco2)C(C(=O)NC2CCCCC2)c2ccc(C)o2)c1 (stereo not given) | inconclusive: 50.1 µM [inhibitor, single point] | –
CCc1ccc(NC(=O)CN2C(=O)C3CCCN3c3ccc(S(=O)(=O)N(CC)CC)cc32)cc1 (stereo not given) | active: 44.7 µM | –
C(=NN1CCCCCC1)c1ccc2ccccc2n1 | – | inactive: 9.22%
Cc1coc2cc3oc(=O)c(CC(=O)NCc4cccc(Cl)c4)c(C)c3cc12 | – | inactive: -9.31%
COc1cc2ncc(C(=O)c3ccc(C)cc3)c(N3CCCCC3)c2cc1OC | inconclusive: 14.1 µM [inhibitor, partial curve, poor fit] | –
CC1CCCN(C(=O)CSc2cnc3ccccc3n2)C1 (stereo not given) | – | inactive: 1.65%
N#CC1=C(N)C2=CCCC[C@H]2[C@H](c2ccc(Br)cc2)C1(C#N)C#N | inconclusive: 52.1 µM [inhibitor, partial curve] | –
Cc1ccc(C2=NC(=O)/C(=C/c3cc(O)c(O)c(Br)c3)S2)cc1 | – | inactive: -5.04%

SMILES | Potency | activity change, negative = inhibition
COc1ccc(C(=O)NC(=S)Nc2ccc(CN3CCOCC3)cc2)cc1Cl | – | inactive: 5.05%
CCCCOc1c(Br)cc(/C=C2\N=C(C)OC2=O)cc1OCC | inconclusive: 46.5 µM [inhibitor, partial curve, poor fit] | –
Cc1ccccc1-n1nc(C)c2c(C(=O)NN)cc(-c3ccncc3)nc21 | inconclusive: 50.1 µM [inhibitor, single point] | –
CCn1cc(/C=N/NC(=O)c2ccc(C#N)cc2F)c2ccccc21 | – | inactive: 30.6%
CC(C)NC(=O)C(C)N1CCN(S(=O)(=O)c2ccc3ccccc3c2)CC1 (stereo not given) | – | inactive: 14.7%
Cc1ccc(-c2nn(-c3cccc(F)c3)cc2CN2CCN(c3ccccn3)CC2)o1 | – | inactive: -0.138%
COc1ccc(C(=O)NCC(=O)N/N=C/c2cccnc2)cc1 | inconclusive: 58.5 µM [inhibitor, partial curve, poor fit] | –
Cc1c(CCC(=O)N[C@@H](C)C(=O)O)c(=O)oc2cc3oc4c(c3cc12)CCCC4 | – | inactive: 7.56%
O=C(CNC(=O)c1cccc(Br)c1)N/N=C/c1ccc[nH]1 | – | inactive: -1.12%
Cc1cc(O)ccc1Nc1nc(-c2sc(N)nc2C)cs1 | – | inactive: 3.48%
Cc1cc(C)cc(N(C(=O)CNC(=O)c2ccco2)C(C(=O)NC2CCCCC2)c2cccnc2)c1 (stereo not given) | inconclusive: 50.1 µM [inhibitor, single point] | –
CCCc1cc(N2CCN(C(=O)c3ccco3)CC2)n2c(nc3ccccc32)c1C#N | inconclusive: 13.1 µM [inhibitor, full curve] | –
NS(=O)(=O)c1ccc(CNC(=O)COc2ccc3c4c(c(=O)oc3c2)CCCC4)cc1 | – | inactive: -3.71%
CC(=O)N(CCC(Cc1ccccc1)c1ccc2c(c1)OCO2)Cc1ccccc1F (stereo not given) | inconclusive: 29.3 µM [inhibitor, partial curve] | –
C=CCNC(=O)C(C#N)c1nc2ccccc2nc1N1CCCCCC1 (stereo not given) | inconclusive: 52.1 µM [inhibitor, partial curve] | –
CC(C)c1ccc(NC(=O)C(c2ccccc2)N(Cc2ccco2)C(=O)CC2NC(=O)NC2=O)cc1 (stereo not given) | inconclusive: 58.5 µM [inhibitor, partial curve, poor fit] | –
COc1ccc(-c2csc(NC(=O)c3ccccc3NS(=O)(=O)c3ccc(F)c(F)c3)n2)cc1 | inconclusive: 58.5 µM [inhibitor, single point] | –
O=C(Nc1cc(S(=O)(=O)N2CCCCC2)ccc1O)c1ccccc1NS(=O)(=O)c1ccc(F)c(F)c1 | inconclusive: 52.1 µM [inhibitor, single point] | –
O=C(NCc1ccco1)c1ccc(CS(=O)c2ccccc2Cl)o1 (stereo not given) | – | inactive: -2.13%
CC(=O)c1sc(NC(C)c2ccccc2)nc1C (stereo not given) | – | inactive: 6.3%
CCN(CC)CC#CCC(O)(c1ccccc1)C1CCCCC1 (stereo not given) | – | inactive: 1.63%
O=C1/C(=C/c2cccnc2)CCC/C1=C\c1cccnc1 | inconclusive: 58.5 µM [inhibitor, single point] | –
